Experimental data reported in publication PMC12136788.
This is one part of the list.

T1: UNK ZnF1-3 (human, UniProt Q9C0B0 31-174)
T1 sequence: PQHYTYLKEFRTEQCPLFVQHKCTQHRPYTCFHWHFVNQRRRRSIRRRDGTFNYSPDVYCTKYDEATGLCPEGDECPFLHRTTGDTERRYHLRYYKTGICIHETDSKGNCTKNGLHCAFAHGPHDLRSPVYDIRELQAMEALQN

B1: chr14:103803487:103803488:+_ENSG00000100664_ENST00000558506|hu_hu|motif|central (ssRNA)
RNA: GGGAGUUCUACAGUCCGACGAUCGAGUUUAUGAUGUGUGUCAAGCAUGCCUCGAUAGCCACAGGCUUUACAAGAAUUACCGGUUGUUUGCUUCUUUGGAUUGACAUGCAAAUCUGUUUCAGGAUUCUCACAUUCAGGACAGAGCAACAGAGGAUUGAGCAUCA
B2: chr15:98781125:98781126:-_ENSMUSG00000072235_ENSMUST00000097014|mus_mus|FALSE|FALSE (ssRNA)
RNA: GGGAGUUCUACAGUCCGACGAUCAACAUUCAGGGCCCCAUCAAAUCUGAGGGAAGCAGUGAUGGAAGACACAAUUUGACCUAUCAACCUGUUUAGGUUAGUGUAGGUUGGGCGCUCAAUGUCGAGGUUUCUACGACAGAUAUCCAACAGAGGAUUGAGCAUCA
B3: chr5:37680062:37680063:+_ENSMUSG00000029121_ENSMUST00000031004|mus_hu|mus_mus_mus_hu_False|38_38 (ssRNA)
RNA: GGGAGUUCUACAGUCCGACGAUCUUUGGGUGUAGCUGGUACCUCGUACACAGGACCGUCAUACAUGCCCCUGGAAACCCCUUGCAAUCCAAAAACCUUGCUUCUGAUUUUGACGCGCUGGUACAGGUGCUCCGGGAACGCCUUCAACAGAGGAUUGAGCAUCA
B4: chr1:109605286:109605287:-_ENSG00000197780_ENST00000461096|hu_mus|hu_hu_hu_mus_True|8_68 (ssRNA)
RNA: GGGAGUUCUACAGUCCGACGAUCAAGUUUCAGAGUAACAUUCAGUAACCUCUUUAAAUGCAAUUAUCCUUACUUUAAGCUAAGCAGAAUAAUAAUUUAAUACCGUAAGUGAACUACACACAAAGCCGUGUAUUCAGAAAUGGUCAACAGAGGAUUGAGCAUCA
B5: 44559305_44559425_1238_CDS_ENSMUSG00000032096_ENSMUST00000034607|mouse|control|control (ssRNA)
RNA: GGGAGUUCUACAGUCCGACGAUCCGGAAUAAAAGAUUCCUCUGUUGUUUGUAGUCUCCACUUUAGUACCCCUACAUCACUGUUGACUGGAAAUGACUUCUCUGGGUUUUUCAAGCCAAUGAGAGACUCUGCAGUAAAAAGUUUCAACAGAGGAUUGAGCAUCA
B6: chr9:21819513:21819514:-_ENSMUSG00000003410_ENSMUST00000003501|mus_mus|FALSE|FALSE (ssRNA)
RNA: GGGAGUUCUACAGUCCGACGAUCUGAACUUUUUAUUUUCUGGCAUGAAAAGUACAAAUAGUUAAAGAAUCCCAUGUAAAAGUCAGUUACCGCGGCCAGGCCUGGGGCUCGGUAAGAAAUGUCUAACGCAACUUGAAGUGUUCUCAACAGAGGAUUGAGCAUCA

The binders below were run against T1, UNK ZnF1-3 (assay: nsRBNS (natural sequence RNA bind-n-seq); RBNS binding buffer (assumed for nsRBNS): 25 mM Tris pH 7.5, 150 mM KCl, 3 mM MgCl2, 0.01% Triton X-100, 500 ug/ml BSA, 20 U/ml SUPERase-In, 4 C; UNK is unkempt and MSI1 is Musashi-1; names of the RNAs are library labels; protein concentration not given here; high values mean tight binding).
B1 was tested, and the binding signal was 1.48 enrichment R.
Binder B2 has a binding signal of 1.13 enrichment R.
B3 showed a binding signal of 0.716 enrichment R.
Binder B4 has a binding signal of 0.462 enrichment R.
With B5 the binding signal was 0.922 enrichment R.
B6 was tested, and the binding signal was 0.928 enrichment R.
